From PubChem BioAssay (NCI)
Some compounds were tested as several samples or in several runs, with calls that do not always agree.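 Single-dose data. Exposure time 48 hours. Values below 10 considered active.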 For part of its entries the source gives two or more results. This is not the full list of results. An entry can have further records. These are repeated runs of one drug, at the concentration stated with the values; one value stands for one run. Brackets with × count equal records among those shown.

Tested on: HL-60(TB) leukemia
Test: NCI-60 one-dose screen, 48 h (100 = growth as untreated, 0 = no growth, -100 = all killed)
Conditions: 2.5 mM

Question: Which results are given for `O=c1[nH]cc(F)c(=O)[nH]1`?
Answer: growth (runs of 1991): inactive: 13.7, 23.8, 20.9, 13.4, 55.6, 22.7, 11.1 (2×), 11.9, 40.4, 27.1% and active: 8.86, -4.67, -6.35, 6.68, 6.27, 9.78%; growth (runs of 1992): inactive: 27.9, 14 (3×), 12.8, 15.6, 15.8, 25.6, 28.8, 17.3, 11.8 (2×), 39.6, 21.9, 37.7, 18.2 (2×), 16.9, 10.5 (2×), 13.9, 21, 11.6, 19.4 (2×), 33.5, 20.8, 16.5 (2×), 19.8 (2×), 22.1, 30.1, 16.2, 15.9, 13.7, 21.1, 19.3, 21.6 (2×), 14.7, 13.6, 17.8, 20.1, 10.8 (2×), 23.1, 11.3, 18.9, 33, 12.4, 55.9, 20.9, 43.6, 10.7, 11.2, 20.3% and active: 2.73, -7.96, 5.31 (2×), 7.3, 7.75, -10.5 (2×), 4.39, -2.87, 1.87, -9.59, 6.25, -9.65, 0.918, 0.204, 0.046, 7.06, -11.2, 8.99, -13.3, 8.84, 4.56, -6.35, 2.48, 4.06, 8.13, -8.41, 5.18, 7.84, 1.01, 6.4, 7.29, 6.73, 4.42, 6.15, -0.21, 2.05, 3.58, 7.35, -10.1, -77.6, 6.87, -2.1, 9.5, 5.7, 5.78, 5.76, 6.01, 7.62, -1.39, -11.5, 8.11, 5.28, 4.03, 9.71, 5.8, 8.76, 3.15%; growth (runs of 1993): inactive: 17.5, 13.5, 59.3, 25.5, 11.7, 28.2, 11.6, 16.7, 17.9, 36.8, 10.9, 47.7, 32.8, 16, 41.5, 92.3, 27.2, 87.1, 38.5, 10.3, 18.7, 15.2, 12.5% and active: 4.34, 3.7, 9.13, 7.01, 9.63, -33.9, -10.9, 4.92, 5.29, 4.66, -1.54, 4.07, -44.3, 3.64, -12.2, 4.76, -18.8, 9.4, 9.41, 0.702, -0.162, -20.2, -17.7, 0.868, -17.9, 2.96%; growth (runs of 1994): inactive: 33.9, 10.7, 12.6, 42.5, 25.7, 95.3, 65.8, 13.4, 10.1 (2×), 15.6, 43.5, 10, 22.2, 14.8, 13.3, 25.3, 22.8% and active: -17.7, 4.69, -2.61, 6.79, -27.3, 9.51, -14.6, -11.4, 8.18, -11.3, 2.56, 3.34, -10.4%; growth (runs of 1995): active: 8.89, 8.32, -1.01, -16.7, -11.3, 8.4, 2.58, -6.78, -6.12, -15, -24, -7.51, 8.67, -22.7, -51.4, 9.01, 4.37, 5.06, -44.1, -25.1, -20.3, 8.95, 7.2, -31, -18.8, 5.59, -48.6, -15.2% and inactive: 20.4, 16.5, 15.9, 40.4, 21.8, 10, 14.5%; growth (runs of 1996): inactive: 22.9, 54, 13.9, 13.2, 71.8, 12, 16.1% and active: -50.8, 2.43, -18.6, -5.51, 2.76, -19.9, 1.39, -29.8, -24.2, -54.7, -24, -19.1, -23, -46.9, 6.38, -20.1, 6.28, -29.2, 6.61, -43.6, -40.5, -23.2, -10.5, -23.1, -8.28, 1.52, 0.777, -74.6%; growth (runs of 1997): active: -22.7, 1.22, -33.8, -3.6, 6.24, 6.03, -56.8, 3.43, 8.27, 7.36, 0.952, 9.67, -55.7% and inactive: 10.8, 10.3, 37.1, 10.5, 15.8, 34.1, 16.5, 19.5, 23.4, 35.4, 24.9, 44.9, 20.6, 16.6%; growth (runs of 1998): active: 6.88, -24.2, -15.8, -1.04, -16.5, -2.85, -8.97% and inactive: 72.7, 22.8, 49.3, 41.9, 28.3 (2×), 28.1, 18.3, 90.2, 62.4, 14.3, 40.4%; growth (runs of 1999): inactive: 27.7, 18.4, 10.5, 21.6, 13.7% and active: 2.85, -44.1, -32.7, -4.13, -79.6, -29.3, 0.026, -8.33, -73.6, 2.35, -49.9, 1.74%; growth (runs of 2000): active: -34.1, -24.4, 4.57, -43.6%
